Measured values reported in PubChem BioAssay AID1996.
Values after ≈ are worked out from the molar mass of the structure shown.

conditions: buffer; pH 7.4; 200.0 µM

Compound | solubility kinetic
Cc1noc(C(=O)Nc2cccc(O)c2)c1Cl | 28.9 µg/mL (≈ 114 µM)
O=C(CNC(=O)c1cccc([N+](=O)[O-])c1)OCCCC(=O)c1ccc(F)cc1 | > 58.3 µg/mL
CCN1CCN(C(=O)NCc2ccccc2)CC1 | 31 µg/mL (≈ 125 µM)
CC(=O)NCCOc1nc(N2CCCCC2)nc(N2CCCCC2)n1 | > 52.3 µg/mL
Cc1cc2c(c(SCC#N)n1)C(=O)OC2 | > 33 µg/mL
Cc1ccc(CNC(=O)CNC(=O)c2c(C)nn(C)c2Cl)cc1 | > 50.2 µg/mL
COCC(C)n1c(C)cc(C(=O)CSc2ncccn2)c1C (stereo unspecified) | > 47.9 µg/mL
O=C(c1ccccn1)N1CC=C(c2ccccc2)CC1 | 37.8 µg/mL (≈ 143 µM)
CC(=O)CCc1oc2ccc([N+](=O)[O-])cc2c1-c1ccc(C)o1 | 3.1 µg/mL (≈ 9.89 µM)
O=C(CCN1CCN(c2ccccc2)CC1)c1ccc(Cl)cc1 | 47.5 µg/mL (≈ 144 µM)
NC(=O)NCC(=O)N1CCN(S(=O)(=O)c2ccc(Cl)s2)CC1 | 52.7 µg/mL (≈ 144 µM)
COc1ccc(/C(C)=N/NC(=O)c2ccncc2)cc1 | > 40.4 µg/mL
COc1ccc(CN(Cc2cccn2C)S(=O)(=O)c2ccccc2)cc1 | 2.4 µg/mL (≈ 6.48 µM)
O=C(O)c1ccc(N=C2SCC(=O)N2Cc2ccccc2)cc1 | > 49 µg/mL
CC1CCCC(C)N1C(=S)NCc1ccco1 (stereo unspecified) | 24.1 µg/mL (≈ 95.5 µM)
Cc1ccccc1NC(=O)Nc1ccccc1N1CCCCC1 | 0.2 µg/mL (≈ 0.646 µM)
